For experiment [1], the system named is Fusarium graminearum. The experiment can be described thus: microbe, parasite or virus in culture. Particulars: for inhibition at 100 µg/mL: 72 h, read-out: mycelial growth inhibition rate, 100 mg/L, PDA medium, 25 °C, Day 3. How it is done: (§1) The antifungal action of the compound according to an embodiment of the present invention against various plant pathogenic filamentous fungi was tested by a Petri dish test.
(§2) The compound according to an embodiment of the present invention was dissolved in dimethyl sulfoxide to a predetermined concentration and added to a PDA culture medium (potato dextrose agar medium) sterilized by autoclave and then cooled to around 60°C in an amount of 1% (V/V). The culture medium was poured into the Petri dish and a plate culture medium containing the compound of an embodiment of the present invention was prepared by mixing thoroughly so that the chemical concentration in the PDA culture medium was uniform.
(§3) On the other hand, the fungal colony of various plant pathogenic microorganisms previously cultured on the PDA culture medium was punched out using a cork borer having a diameter of 4 mm, and inoculated into the aforementioned chemical containing plate culture medium. After culture was performed at a predetermined temperature for a predetermined period of time according to Table 3, the colony diameter on the chemical-treated plate was measured. The mycelial growth inhibition rate (%) was calculated by the following formula in comparison with a diameter of the fungal colony on the untreated plate containing no chemical. R = 100(dc−dt)/dc [formula] (where R = mycelial growth inhibition rate (%), dc = colony diameter on untreated plate, dt = colony diameter on chemical-treated plate.) A larger mycelial growth inhibition rate indicates better antimicrobial action.
An antifungal test was performed using a wheat Fusarium head blight fungi according to the aforementioned method.
For the compound I-87 and the control compound D, the antifungal activity test against wheat fusarium head blight (Fusarium graminearum) was performed in the same manner as in Test Example 1 except for changing the concentration to a predetermined concentration.

For experiment [2], the system named is Blumeria graminis. The experiment can be described thus: Wheat powdery mildew control efficacy test. The following applies: 100 g ai/ha sprayed at 1000 L/ha on wheat; day 6 to day 8 after inoculation. Here is the method: Wheat (variety: Norin No. 61) was cultivated from the first to second leaf stage using a square plastic pot (6.5 cm × 6.5 cm). The compound according to an embodiment of the present invention was dissolved in acetone containing 60 ppm of Gramin S, 5% (V/V) of this solution was added to water containing 60 ppm of Gramin S in a manner that the concentration became 100 g ai/ha, and this liquid was sprayed on wheat at a ratio of 1000 L/ha. The sprayed liquid on the plant body was air-dried, and then the spore of wheat powdery mildew from wheat powdery mildew seedlings was sprinkled on and inoculated. Subsequently, it was managed in a greenhouse. On day 6 to day 8 after inoculation, the disease spot area ratio of wheat powdery mildew was investigated, and the control efficacy was calculated in the same manner as in Test Example 2.

Experiment [3] relates to Zymoseptoria tritici. Briefly: Wheat leaf blight control efficacy test. Particulars: 100 g ai/ha sprayed at 1000 L/ha on wheat; day 27 to day 33 after inoculation. How it is done: Wheat (variety: Norin No. 61) was cultivated from the first to second leaf stage using a square plastic pot (6.5 cm × 6.5 cm). The compound according to an embodiment of the present invention was dissolved in acetone containing 60 ppm of Gramin S, 5% (V/V) of this solution was added to water containing 60 ppm of Gramin S in a manner that the concentration became 100 g ai/ha, and this liquid was sprayed on wheat at a ratio of 1000 L/ha. After the sprayed liquid on the plant body was air-dried, the spore of wheat leaf blight fungi (adjusted to 1 × 10^7/mL, with Gramin S added to 60 ppm) was spray-inoculated, and kept at 20°C under high-humidity conditions for 72 hours. Subsequently, it was managed in an artificial weather chamber. On day 27 to day 33 after inoculation, the disease spot area ratio of wheat leaf blight was investigated, and the control efficacy was calculated in the same manner as in Test Example 2.
(§4) For the compounds I-16, I-18, and I-48 and the control compound A, the antifungal activity test against plant pathogenic fungi and the wheat leaf blight (Zymoseptoria tritici) control efficacy test were performed in the same manner as in Test Example 1-1 and Test Example 4 except for changing the concentration to a predetermined concentration.

Experiment [4] concerns Penicillium italicum. The experiment can be described thus: Antifungal activity test against plant pathogenic fungi (Petri dish test), citrus blue mold fungi. Particulars: read-out: mycelial growth inhibition rate; for inhibition at 100 µg/mL: 72 h. How it is done: as §1, §2, §3
An antifungal test was performed using a citrus blue mold fungi according to the aforementioned method.
For the compound I-18 and the control compound C, the antifungal activity test against the citrus blue mold fungi (Botrytis cinerea) was performed in the same manner as in Test Example 1 except for changing the concentration to a predetermined concentration.

In experiment [5] the test system is Zymoseptoria tritici. The experiment can be described thus: Antifungal activity test against plant pathogenic fungi (Petri dish test), wheat leaf blight fungi. The following applies: read-out: mycelial growth inhibition rate; for inhibition at 100 µg/mL: 336 h. Here is the method:
as §1, §2, §3
An antifungal test was performed using a wheat leaf blight fungi according to the aforementioned method.
as §4

The source of these data is patent EP4800008A1, “PYRAZOLE DERIVATIVE, OR ACCEPTABLE SALT THEREOF OR N-OXIDE THEREOF, AGRICULTURAL AND HORTICULTURAL CHEMICAL, AND INDUSTRIAL MATERIAL PROTECTANT” (Kureha Corporation, priority 2023, dated 2025).

On to `CON(C(=O)c1cn(C)nc1C(F)F)C(C)Cc1ccc(C#CCOCc2ccccc2)cc1Cl` (stereo not shown) [Compound I-18], for which, in experiment [1], the inhibition at 100 µg/mL is not below 70%. This compound also returned a control efficacy in experiment [2] not below 80%. This compound also had a control efficacy in experiment [3] not below 80%. Moreover, in experiment [4], the inhibition at 100 µg/mL was not below 80%, the inhibition at 12.5 ppm worked out at 80% and the inhibition at 100 ppm worked out at 86%. In experiment [5], the inhibition at 100 µg/mL is not below 80%, the inhibition at 1.56 ppm stood at 79% and the inhibition at 12.5 ppm was determined as 95%.

For `CON(C(=O)c1cn(C)nc1C(F)F)C(C)Cc1ccc(C#CCOc2ncc(Cl)cc2Cl)cc1Cl` (stereo not shown) [Compound I-41], the inhibition at 100 µg/mL in experiment [1] is not below 70%; in experiment [4] it was not below 80%; in experiment [5] it was not below 80%.

Regarding `CON(C(=O)c1cn(C)nc1C(F)F)C(C)Cc1c(Cl)cc(Cl)cc1Cl` (stereo not shown) [Control compound C, reference compound], in experiment [4], the inhibition at 12.5 ppm was determined as 74% and the inhibition at 100 ppm worked out at 77%.

On to `CC(c1ccc(C#Cc2ccc(Cl)cc2)cc1Cl)N(C(=O)c1cn(C)nc1C(F)F)C1CC1` (stereo not shown) [Control compound D, reference compound], for which the inhibition at 12.5 ppm in experiment [1] (read-out: mycelial growth inhibition rate, 12.5 ppm, as Test Example 1) turned out to be 57%. Further, the inhibition at 100 ppm in experiment [1] (read-out: mycelial growth inhibition rate, 100 ppm, as Test Example 1) came to 61%.
